The results in this text go back to the supplement of paper PMC12217912.

B1: TEV protease; numbered along this chain (parent)
chain: MGESLFKGPRDYNPISSSICHLTNESDGHTTSLYGIGFGPFIITNKHLFRRNNGTLVVQSLHGVFKVKDTTTLQQHLVDGRDMIIIRMPKDFPPFPQKLKFREPQREERICLVTTNFQTKSMSSMVSDTSCTFPSGDGIFWKHWIQTKDGQCGSPLVSTRDGFIVGIHSASNFTNTNNYFTSVPKNFMELLTNQEAQQWVSGWRLNADSVLWGGHKVFMVKPEEPFQPVKEATQL

The other results are listed elsewhere or left out. The full chains were built here from the parent and the listed change. Values near 0.05 are background.

Variants of B1 are the subject of this experiment. Description: raw area under fraction-flipped curve 0-4 h after induction (AUC4h, not background-subtracted), DNA-recorder readout of cleavage of the substrate (dimensionless); higher = more cleavage of the substrate by the protease variant. The settings on record: temperature: 34 °C; time window: 0-4 h after rhamnose induction.
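Also: Bxb1 expression induced with 0.2% (w/v) L-rhamnose at OD600 near 0.5, cultures sampled hourly, flipped fraction per protease–substrate barcode pair counted by paired-end Illumina sequencing.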

In the case of MGESLFKGPRDYNPISSSICHLTNESDGHTTSLYGIGFGPFIITNKHLFRRNNGTLVVQSLHGVFKVKDTTQLQQHLVDGRDMIIIRMPKDFPPFPQKLKFREPQREERICLVTTNFQTKSMSSMVSDTSCTFPSGDGIFWKHWIQTKDGQCGSPLVSTRDGFIVGIHSASNFTNTNNYFTSVPKNFMELLTNQEAQQWVSGWRLNADSVLWGGHKVFMVKPEEPFQPVKEATQL [T72Q], the “area with substrate ENLYFES” value is 0.0795, the “area with substrate ENLYFFS” value was 0.0659, the “area with substrate ENLYFIS” value worked out at 0.0748 and the “area with substrate ENLYFMS” value was 0.0758. In addition, the “area with substrate ENLYFPS” value came to 0.0552, the “area with substrate ENLYFTS” value amounted to 0.0649, the “area with substrate ENLYFVS” value stood at 0.0388 and the “area with substrate ENLYFWS” value came out at 0.0535. The “area with substrate ENLYFYS” value came to 0.0589.
Take MGESLFKGPRDYNPISSSICHLTNESDGHTTSLYGIGFGPFIITNKHLFRRNNGTLVVQSLHGVFKVKDTTTLQQHLVDGRDMIIIRMPKDFPPFPQKLKFREPQREERICLVTTNFQTKSMSSMVSDTSCTFTSGDGIFWKHWIQTKDGQCGSPLVSTRDGFIVGIHSASNFTNTNNYFTSVPKNFMELLTNQEAQQWVSGWRLNADSVLWGGHKVFMVKPEEPFQPVKEATQL [P134T]: the “area with substrate ENLYFES” value came to 0.0679, the “area with substrate ENLYFFS” value was found to be 0.0724, the “area with substrate ENLYFGS” value was found to be 0.0524 and the “area with substrate ENLYFIS” value stood at 0.0447. In addition, the “area with substrate ENLYFKS” value was determined as 0.0583, the “area with substrate ENLYFLS” value came to 0.0436, the “area with substrate ENLYFMS” value amounted to 0.0611 and the “area with substrate ENLYFNS” value came to 0.0663. Also, the “area with substrate ENLYFPS” value came to 0.0555, the “area with substrate ENLYFRS” value came to 0.0565, the “area with substrate ENLYFSS” value came to 0.0499 and the “area with substrate ENLYFTS” value amounted to 0.0587. The “area with substrate ENLYFWS” value was determined as 0.053 and the “area with substrate ENLYFYS” value is 0.0655.
As for MGESLFKGPRDYNPISSSICHLTNESDGHTTSLYGIGFGPFIITNKHLFRRNNGTLVVQSLHGVFKVKDTTTLQQHLVDGRDMIIIRMPKDFPPFPQKLKFREPQREERICLVTTNFQTKSMSSMVSDTSCTFPSGDGIFWKHWIQTKDGQCGSPLVSTRDGFIVGIHSASNFTNTNNYFTSVPKNFMELLTNQEAQQWVSKWRLNADSVLWGGHKVFMVKPEEPFQPVKEATQL [G202K], the “area with substrate ENLYFES” value came out at 0.074, the “area with substrate ENLYFFS” value was 0.0627, the “area with substrate ENLYFHS” value was found to be 0.0461 and the “area with substrate ENLYFIS” value was 0.0519. Further, the “area with substrate ENLYFMS” value stood at 0.0705.
For the variant MGESLFKGPRDYNPISSSICHLTNESDGHTTSLYGIGFGPFIITNKHLFRRNNGTAVVQSLHGVFKVKDTTTLQQHLVDGRDMIIIRMPKDFPPFPQKLKFREPQREERICLVTTNFQTKSMSSMVSDTSCTFPSGDGIFWKHWIQTKDGQCGSPLVSTRDGFIVGIHSASNFTNTNNYFTSVPKNFMELLTNQEAQQWVSGWRLNADSVLWGGHKVFMVKPEEPFQPVKEATQL [L56A], the “area with substrate ENLYFES” value is 0.0632, the “area with substrate ENLYFFS” value turned out to be 0.074, the “area with substrate ENLYFIS” value turned out to be 0.0506 and the “area with substrate ENLYFLS” value came to 0.0498. For the same variant, the “area with substrate ENLYFMS” value was 0.0615, the “area with substrate ENLYFPS” value stood at 0.0906 and the “area with substrate ENLYFVS” value worked out at 0.0714.
Turning to MGESLFKGPRDYNPISSSICHLTNESDGHTTSLYGIGFGPFIITNKHLFRRNNGTLVVQSLHGVFKVKDTTTLQQHLVDGRDMIIIRMPKDFPPFPQKLKFREPQREERICLVTTNFQTKSMSSMVSDTSCTFPSGDGIFWKHWIQTKDGQCGSPLVSTRDGFIVGIHSASNFTNHNNYFTSVPKNFMELLTNQEAQQWVSGWRLNADSVLWGGHKVFMVKPEEPFQPVKEATQL [T176H], the “area with substrate ENLYFES” value came out at 0.0771, the “area with substrate ENLYFFS” value is 0.0687, the “area with substrate ENLYFGS” value was 0.0656 and the “area with substrate ENLYFHS” value amounted to 0.0596. For the same variant, the “area with substrate ENLYFIS” value came out at 0.0481, the “area with substrate ENLYFKS” value worked out at 0.0664, the “area with substrate ENLYFLS” value was found to be 0.0593 and the “area with substrate ENLYFMS” value was determined as 0.0826. The “area with substrate ENLYFPS” value was 0.0535, the “area with substrate ENLYFSS” value turned out to be 0.0661 and the “area with substrate ENLYFTS” value came to 0.0599.
For MGESLFKGPRDYNPISSSICHLTNESDGHTTSLYGIGFGPFIITNKHLFRRNNGTLVVQSLHGVFKVKDTTTLQQHLVDGRDMIIIRMPKDFPPFPQKLKFREPQREERICLVTTNFQIKSMSSMVSDTSCTFPSGDGIFWKHWIQTKDGQCGSPLVSTRDGFIVGIHSASNFTNTNNYFTSVPKNFMELLTNQEAQQWVSGWRLNADSVLWGGHKVFMVKPEEPFQPVKEATQL [T119I], the “area with substrate ENLYFES” value amounted to 0.0637, the “area with substrate ENLYFHS” value is 0.0516, the “area with substrate ENLYFIS” value was found to be 0.0473 and the “area with substrate ENLYFKS” value was 0.0488. In addition, the “area with substrate ENLYFMS” value was 0.0577, the “area with substrate ENLYFPS” value worked out at 0.0604, the “area with substrate ENLYFSS” value came to 0.0627 and the “area with substrate ENLYFWS” value was 0.0518.
Turning to MGESLFKGPRDYNPISSSICHLTNESDGHTTSLYGIGFGPFIITNKHLFRRNNGTLVVQSLHGVFKVKDTTTLQQHLVDGRDMIIIRMPKDFPPFPQKLKFREPQREERICLVTTNFQMKSMSSMVSDTSCTFPSGDGIFWKHWIQTKDGQCGSPLVSTRDGFIVGIHSASNFTNTNNYFTSVPKNFMELLTNQEAQQWVSGWRLNADSVLWGGHKVFMVKPEEPFQPVKEATQL [T119M], the “area with substrate ENLYFES” value was 0.0695, the “area with substrate ENLYFFS” value is 0.062, the “area with substrate ENLYFMS” value was 0.0598 and the “area with substrate ENLYFNS” value amounted to 0.0618. Further, the “area with substrate ENLYFPS” value worked out at 0.066 and the “area with substrate ENLYFTS” value was 0.0659.
For the variant MGESLFKIPRDYNPISSSICHLTNESDGHTTSLYGIGFGPFIITNKHLFRRNNGTLVVQSLHGVFKVKDTTTLQQHLVDGRDMIIIRMPKDFPPFPQKLKFREPQREERICLVTTNFQTKSMSSMVSDTSCTFPSGDGIFWKHWIQTKDGQCGSPLVSTRDGFIVGIHSASNFTNTNNYFTSVPKNFMELLTNQEAQQWVSGWRLNADSVLWGGHKVFMVKPEEPFQPVKEATQL [G8I], the “area with substrate ENLYFES” value was found to be 0.076, the “area with substrate ENLYFFS” value amounted to 0.0709, the “area with substrate ENLYFKS” value is 0.0616 and the “area with substrate ENLYFTS” value worked out at 0.0682. Also, the “area with substrate ENLYFYS” value was 0.0714.
As for MGESLFKCPRDYNPISSSICHLTNESDGHTTSLYGIGFGPFIITNKHLFRRNNGTLVVQSLHGVFKVKDTTTLQQHLVDGRDMIIIRMPKDFPPFPQKLKFREPQREERICLVTTNFQTKSMSSMVSDTSCTFPSGDGIFWKHWIQTKDGQCGSPLVSTRDGFIVGIHSASNFTNTNNYFTSVPKNFMELLTNQEAQQWVSGWRLNADSVLWGGHKVFMVKPEEPFQPVKEATQL [G8C], the “area with substrate ENLYFFS” value stood at 0.0526 and the “area with substrate ENLYFRS” value turned out to be 0.0624.
In the case of MGESLFKGPRDYNPISSSICHLTNESDGFTTSLYGIGFGPFIITNKHLFRRNNGTLVVQSLHGVFKVKDTTTLQQHLVDGRDMIIIRMPKDFPPFPQKLKFREPQREERICLVTTNFQTKSMSSMVSDTSCTFPSGDGIFWKHWIQTKDGQCGSPLVSTRDGFIVGIHSASNFTNTNNYFTSVPKNFMELLTNQEAQQWVSGWRLNADSVLWGGHKVFMVKPEEPFQPVKEATQL [H29F], the “area with substrate ENLYFES” value came out at 0.0428, the “area with substrate ENLYFFS” value is 0.0614, the “area with substrate ENLYFHS” value was found to be 0.0588 and the “area with substrate ENLYFIS” value stood at 0.0531. Moreover, the “area with substrate ENLYFKS” value worked out at 0.0683, the “area with substrate ENLYFMS” value amounted to 0.0834, the “area with substrate ENLYFNS” value worked out at 0.0061 and the “area with substrate ENLYFRS” value came to 0.0595.
With MGESLFKGPRDYNPISSSICHLTNESDGHTTSLYGIGFGPFIITNKHLFRRNNGTLVVQSLHGVFKVKDTTTLQQHLVDGRDMIIIRMPKDFPPFPQKLKFREPQREERICLVTTNFQTKSMSSMVSDTSCTFPSGDGIFWKHWIQTKDGQCGSPLVSTRDGFIVGIHSASNFTNTNNYFTSVPKNFMELLTNQEAQQWVSGWRLNATSVLWGGHKVFMVKPEEPFQPVKEATQL [D208T], the “area with substrate ENLYFES” value stood at 0.0606, the “area with substrate ENLYFGS” value was 0.0544, the “area with substrate ENLYFIS” value came out at 0.062 and the “area with substrate ENLYFKS” value stood at 0.0614. Moreover, the “area with substrate ENLYFLS” value was 0.0544, the “area with substrate ENLYFMS” value was found to be 0.057, the “area with substrate ENLYFNS” value came to 0.0575 and the “area with substrate ENLYFPS” value was 0.0719. Moreover, the “area with substrate ENLYFSS” value is 0.0172, the “area with substrate ENLYFVS” value worked out at 0.034, the “area with substrate ENLYFWS” value turned out to be 0.0614 and the “area with substrate ENLYFYS” value came to 0.0558.
